The whole screen tested about 310,000 compounds, of which about 2,200 (0.71%) showed an effect of 50% or more. Effects have a minus sign here. Some of the results follow.

The target of the test is human ether-à-go-go-related gene (hERG) potassium channel (human, UniProt Q12809). In words: primary screen, population patch clamp on CHO cells stably expressing hERG.
human ether-à-go-go-related gene (hERG) potassium channel, sequence (Q12809 whole entry, looked up): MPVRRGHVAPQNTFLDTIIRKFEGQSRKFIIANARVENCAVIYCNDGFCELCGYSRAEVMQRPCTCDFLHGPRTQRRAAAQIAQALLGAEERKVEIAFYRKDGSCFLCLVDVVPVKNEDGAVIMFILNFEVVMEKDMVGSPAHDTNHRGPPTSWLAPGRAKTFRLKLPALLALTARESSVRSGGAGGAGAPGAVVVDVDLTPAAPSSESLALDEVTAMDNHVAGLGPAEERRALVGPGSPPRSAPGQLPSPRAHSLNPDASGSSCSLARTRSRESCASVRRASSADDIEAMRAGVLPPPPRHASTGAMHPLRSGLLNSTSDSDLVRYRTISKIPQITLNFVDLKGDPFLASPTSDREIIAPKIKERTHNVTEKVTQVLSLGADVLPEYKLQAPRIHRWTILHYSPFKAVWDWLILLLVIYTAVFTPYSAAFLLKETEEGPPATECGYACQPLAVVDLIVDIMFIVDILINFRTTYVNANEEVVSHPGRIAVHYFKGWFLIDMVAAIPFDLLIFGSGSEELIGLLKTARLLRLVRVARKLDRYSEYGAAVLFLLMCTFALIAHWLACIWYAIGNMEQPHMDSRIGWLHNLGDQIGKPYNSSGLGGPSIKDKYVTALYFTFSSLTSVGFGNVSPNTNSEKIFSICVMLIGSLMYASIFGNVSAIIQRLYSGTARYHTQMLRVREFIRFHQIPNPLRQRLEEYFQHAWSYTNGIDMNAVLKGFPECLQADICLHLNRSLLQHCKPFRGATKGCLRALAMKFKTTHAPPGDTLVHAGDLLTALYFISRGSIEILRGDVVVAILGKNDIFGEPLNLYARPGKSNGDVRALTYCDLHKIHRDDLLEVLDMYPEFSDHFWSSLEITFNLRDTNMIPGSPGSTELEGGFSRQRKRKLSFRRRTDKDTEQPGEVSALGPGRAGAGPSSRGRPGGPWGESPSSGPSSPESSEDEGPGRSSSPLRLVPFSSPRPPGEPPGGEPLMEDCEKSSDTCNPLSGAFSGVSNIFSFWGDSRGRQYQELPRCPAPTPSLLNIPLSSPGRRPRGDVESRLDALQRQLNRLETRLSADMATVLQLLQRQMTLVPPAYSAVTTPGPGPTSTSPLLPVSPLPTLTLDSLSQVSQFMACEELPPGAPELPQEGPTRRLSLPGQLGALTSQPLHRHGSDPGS
For `CCOCCCNC(=O)CN1C(=O)CSc2cc(S(=O)(=O)N3CCCCCC3)ccc21`, the “hERG current change (%, negative = inhibition) at 1uM” value is listed as -1.51%.

Turning to `Cc1ccc(OCC(=O)N2CCCCCCC2)cc1C`, the “hERG current change (%, negative = inhibition) at 1uM” value is reported as 4.51%.

As to `S=c1[nH]nc(COc2ccccc2)n1/N=C/c1c(Cl)cccc1Cl`, the “hERG current change (%, negative = inhibition) at 1uM” value was 14%. As for `O=C(CCOc1ccccc1)Nc1ccc(Br)cc1`, the “hERG current change (%, negative = inhibition) at 1uM” value turned out to be 17.2%. Consider `CCOC(=O)c1c(C)[nH]c(C)c1C(=O)CSc1nnc(-c2ccncc2)n1Cc1ccccc1`, for which the “hERG current change (%, negative = inhibition) at 1uM” value is -4.01%. As for `O=C(OCC1O[C@@H](OC(=O)c2cc(O)c(O)c(O)c2)[C@@H](OC(=O)c2cc(O)c(O)c(O)c2)[C@@H](OC(=O)c2cc(O)c(O)c(O)c2)[C@@H]1OC(=O)c1cc(O)c(O)c(O)c1)c1cc(O)c(O)c(O)c1` (stereo partly drawn), the “hERG current change (%, negative = inhibition) at 1uM” value is 21%. `O=C(Nc1ccc(Cl)cc1C(=O)N1CCOCC1)c1cccc([N+](=O)[O-])c1`: the “hERG current change (%, negative = inhibition) at 1uM” value was found to be 11.6%. For `COc1cccc(NC(=O)CSc2nnc(Cn3nnc4ccccc43)n2C)c1`, the “hERG current change (%, negative = inhibition) at 1uM” value was -13.2%. For `CCOC(=O)CSc1nc2c(sc(=S)n2CCc2ccccc2)c(=O)n1Cc1ccco1` the value was 14%; for `COc1ccccc1CC(NC(C)=O)C(=O)NC1CCN(C(=O)Nc2ccc(F)cc2)CC1` (stereo not drawn), 6.65%. Under `O=C(C[n+]1cccc(O)c1)NCc1ccc(Cl)cc1.[Cl-]` stands 18.6%; under `O=Cc1ccccc1-n1cccn1`, 11.2%.

For the compound `FC(F)(F)c1cccc(N2CCC(N=CN3CCCCCC3)=N2)c1`, the “hERG current change (%, negative = inhibition) at 1uM” value is given as 12.5%. Regarding `CCCCn1c(SCC(=O)Nc2cc(C)[nH]n2)nc2ccsc2c1=O`, the “hERG current change (%, negative = inhibition) at 1uM” value is reported as 4.58%. For `Cc1ccc(CSCCNC(=O)CSCc2ccc([N+](=O)[O-])cc2)cc1`, the “hERG current change (%, negative = inhibition) at 1uM” value is on record as -18.1%. As to `S=c1[nH]nc(-c2ccccc2)n1/N=C/c1ccc(-c2ccccc2Cl)o1`, the “hERG current change (%, negative = inhibition) at 1uM” value is 14.5%. Regarding `CCN1C(=O)c2cccc3c(NC(=O)c4ccc(S(=O)(=O)N5CCOCC5)cc4)ccc1c23`, the “hERG current change (%, negative = inhibition) at 1uM” value stood at 13.1%. Under `Cc1ccc(C)c(N2CCN(S(=O)(=O)c3ccc4c(c3)C(C)(C)C(=O)N4C)CC2)c1` stands 3.29%. For `COc1ccc(NC(=O)N(Cc2cc3cc(OC)ccc3[nH]c2=O)CC2CCCO2)cc1` (stereo not drawn), the “hERG current change (%, negative = inhibition) at 1uM” value is recorded as 3.41%. For `COC(=O)c1nc(NC(=O)c2cc(OC)c(OC)c(OC)c2)n[nH]1` the value was 10.8%. Turning to `Cc1cc([N+](=O)[O-])ccc1NC(=O)C1CCCO1` (stereo not drawn), the “hERG current change (%, negative = inhibition) at 1uM” value is recorded as 2.73%.

Regarding `O=C(NNS(=O)(=O)c1ccc(F)cc1)c1cc2ccccc2cc1O`, the “hERG current change (%, negative = inhibition) at 1uM” value came to 12.9%.

For `Cc1ccc(-c2ccc(C(=O)O)o2)cc1Cl`, the “hERG current change (%, negative = inhibition) at 1uM” value came to 10.4%.

On to `O=C(NCC1CCCN(C(=O)c2cscn2)C1)c1ccccc1Cl` (stereo not drawn), for which the “hERG current change (%, negative = inhibition) at 1uM” value is listed as 10.9%.

`COc1ccc(NC(=S)N(CCC(C)C)C2CCN(C(C)=O)CC2)cc1`: the “hERG current change (%, negative = inhibition) at 1uM” value is recorded as 15.9%. For `CC(OC(=O)c1cc(=O)[nH]c2ccccc12)C(=O)NC1CCCCC1C` (stereo not drawn), the “hERG current change (%, negative = inhibition) at 1uM” value came to 3.96%. Turning to `CN(C)C1=NCCN1CCc1ccc(F)cc1`, the “hERG current change (%, negative = inhibition) at 1uM” value was found to be 12.6%. Consider `O=C(c1ccc(F)cc1)N1CCCCC(Sc2nnnn2-c2ccccc2)C1=O` (stereo not drawn), for which the “hERG current change (%, negative = inhibition) at 1uM” value is listed as -6.62%. As for `COc1ccc(OCCCC(=O)Nc2cc(S(=O)(=O)N3CCCCC3)ccc2OC)cc1`, the “hERG current change (%, negative = inhibition) at 1uM” value stood at 2.18%. Consider `COc1ccc(NC(=O)CN(C)C2CCS(=O)(=O)C2)cc1` (stereo not drawn), for which the “hERG current change (%, negative = inhibition) at 1uM” value is 25.6%. As for `COc1ccc(N2CCN(C(=O)c3cc(C)oc3C)CC2)cc1`, the “hERG current change (%, negative = inhibition) at 1uM” value was determined as 2.63%. With `CN(C)C1=NCCN1CCC1CCCCC1`, the “hERG current change (%, negative = inhibition) at 1uM” value was found to be 11.4%.

As for `Cc1ccc(S(=O)(=O)C2(C(=O)N(C)C3CCCCC3)CC2)cc1`, the “hERG current change (%, negative = inhibition) at 1uM” value is 2.19%.

For `O=C(CSc1nc2cc(Cl)ccc2s1)N1CCN(C(=O)c2ccco2)CC1`, the “hERG current change (%, negative = inhibition) at 1uM” value is given as -34.3%. For the compound `CCN1C(=O)N[C@H](c2ccc(Br)cc2)C(C(C)=O)=C1C`, the “hERG current change (%, negative = inhibition) at 1uM” value is 11.7%.

In the case of `COc1ccccc1Oc1cn[nH]c1-c1ccc(OCC(=O)NN)cc1O`, the “hERG current change (%, negative = inhibition) at 1uM” value is 13.1%. For `O=C(CSc1ncc(C(F)(F)F)cc1Cl)N1CCN(S(=O)(=O)c2ccc3ccccc3c2)CC1` the value was -0.356%; for `c1ccc(CCn2nnnc2C(c2cccs2)N2CCOCC2)cc1` (stereo not drawn), 0.906%; for `COc1cc(/C=N/NC(=O)c2ccncc2)cc2c1OCO2`, 16.9%. Consider `Cc1cc(OCCCC(=O)N2CCCCC2)cc(C)c1Cl`, for which the “hERG current change (%, negative = inhibition) at 1uM” value is on record as 3.83%. Regarding `COc1ccccc1NC(=O)C(C)Nc1ccc(C)c(Cl)c1` (stereo not drawn), the “hERG current change (%, negative = inhibition) at 1uM” value is 7.58%. With `CCO[C@H]1OC(C(=O)NC2CC2)=C[C@@H](C2CCCCC2)[C@@H]1CCCO`, the “hERG current change (%, negative = inhibition) at 1uM” value is 7.91%. On to `COC(=O)c1sccc1N/N=C(\C)c1ccc(F)c(Cl)c1`, for which the “hERG current change (%, negative = inhibition) at 1uM” value was determined as 9.39%. For `COc1cc(CN2CCCC(C(=O)c3ccc(SC)cc3)C2)cc(Cl)c1O` (stereo not drawn) the value was -3.13%; for `O=C(COC(=O)/C=C/c1ccc(C(F)(F)F)cc1)NCCC1=CCCCC1`, 9.61%.

On to `O=C(CNCC1CCCO1)Nc1ccccc1N1CCOCC1.O=C(O)C(=O)O` (stereo not drawn), for which the “hERG current change (%, negative = inhibition) at 1uM” value was 20.1%. For `COCCn1c(N)c(N(Cc2ccccc2)C(=O)c2cc3ccccc3o2)c(=O)[nH]c1=O` the value was 9.08%; for `Cc1ccc(S(=O)(=O)N(C)C)cc1NC(=O)COC(=O)C1COc2ccccc2O1` (stereo not drawn), 9.85%.

As to `O=C1c2ccccc2C(=O)C12OC2c1cccc2ccccc12` (stereo not drawn), the “hERG current change (%, negative = inhibition) at 1uM” value is -38.8%. Consider `O=C(Cn1nnc2ccccc2c1=O)NCCc1ccc(Cl)cc1Cl`, for which the “hERG current change (%, negative = inhibition) at 1uM” value is listed as -1.86%. As to `Cc1cccc(NC2=NCCCS2)c1C`, the “hERG current change (%, negative = inhibition) at 1uM” value worked out at 16.3%. Under `CC(C)CN(C(=O)CCC(=O)OCc1ccc(Cl)cc1Cl)c1c(N)n(CC(C)C)c(=O)[nH]c1=O` stands 16%; under `Cc1nonc1OCCNC(=O)C12CC3CC(CC(C3)C1)C2`, -3.37%; under `CCn1c(SC(C)C(=O)N2CCOCC2)nc2sc(C)c(C)c2c1=O` (stereo not drawn), 12.3%. Take `O=C(O)C1CCN(C(=O)CCc2ccccc2)CC1`: the “hERG current change (%, negative = inhibition) at 1uM” value turned out to be 9.64%. As for `CC1CCN(C(=O)c2ccc3ccccc3c2)CC1`, the “hERG current change (%, negative = inhibition) at 1uM” value worked out at 3.99%. For the compound `CCCc1cc(=O)n2nc(N3CCC(C(=O)Nc4cccc(C(C)=O)c4)CC3)sc2n1`, the “hERG current change (%, negative = inhibition) at 1uM” value was -1.65%. For `CCOC(=O)c1ccc(Oc2nc(N(C)C)nc(N(C)C)n2)cc1` the value was 15.1%; for `N#Cc1nc(COc2ccccc2Cl)oc1N1CCCC1`, 6.25%. For `CCCCCCCSc1nc(N)cc(=O)[nH]1` the value was 8.02%; for `CCN(CC)Cc1c(O)ccc2cc(-c3nc4ccccc4n3C)c(=O)oc12`, 16.6%; for `COC(=O)N/C(C)=C1/NC(=O)c2ccccc2C(c2ccccc2)N1` (stereo not drawn), 3.84%. As to `O=C(O)C(CCCCN1C(=O)C2C3C=CC(C3)C2C1=O)N1C(=O)C2C3C=CC(C3)C2C1=O` (stereo not drawn), the “hERG current change (%, negative = inhibition) at 1uM” value is reported as 2.95%. With `NC(=O)NC(=O)CSc1nc2sc(-c3ccccc3)cc2c(=O)n1-c1ccccc1`, the “hERG current change (%, negative = inhibition) at 1uM” value amounted to 2.78%. For `COCc1[nH][nH]c(=O)c1C=Nc1ccc(Oc2ccccc2)cc1`, the “hERG current change (%, negative = inhibition) at 1uM” value was -0.135%. Under `O=C(NC1CCCc2ccccc21)C1CCN(C(=O)c2sccc2-n2cccc2)CC1` (stereo not drawn) stands 6.11%; under `CCOc1ccc(C(=O)NCCN2CCCC2)cc1.Cl`, -6.97%. Under `CCCOc1ccc(C(=O)Nc2ccc(N3CCN(C(C)=O)CC3)cc2)cc1` stands 5.22%; under `Cc1ccc(C(=O)c2c[nH]c(C(=O)NCc3cccnc3)c2)cc1`, -5.59%. With `COc1ccc(N2CCC(CNC(=O)Nc3ccc(Cl)cc3)C2)cc1` (stereo not drawn), the “hERG current change (%, negative = inhibition) at 1uM” value stood at 10.9%. In the case of `Cc1ccc(NC(=O)/C=N/OCC(=O)NCc2ccccc2Cl)cc1`, the “hERG current change (%, negative = inhibition) at 1uM” value turned out to be 6.66%.

With `COc1cc(CNC(=O)CCCC(=O)c2ccccc2)cc(OC)c1OC`, the “hERG current change (%, negative = inhibition) at 1uM” value stood at 15.2%. For `CCN(Cc1ccncc1)C(=O)CCc1nnc(CCc2ccccc2OC)o1` the value was 12.6%; for `N#Cc1c(N)oc(-c2ccc3c(c2)OCO3)c1-c1ccc2c(c1)OCO2`, -4.76%.

`O=C(CSc1n[nH]c(=O)n1-c1ccccc1)Nc1ccccc1`: the “hERG current change (%, negative = inhibition) at 1uM” value is on record as 8.54%. Under `CCCCCn1c(=O)c(C(=O)Nc2ccccn2)c(O)c2ccccc21` stands 19.6%.

On to `CCOc1cc(C2NC(=O)NC(C)=C2C(=O)OCc2ccccc2)ccc1O` (stereo not drawn), for which the “hERG current change (%, negative = inhibition) at 1uM” value stood at 11.8%. On to `O=C(OCC(=O)N1CCCC1=O)c1ncc(Cl)c(Cl)c1Cl`, for which the “hERG current change (%, negative = inhibition) at 1uM” value was 10.2%.

For the compound `CCN(CC)S(=O)(=O)c1ccc(N2CCOCC2)c(NC(=O)c2ccc(C#N)cc2)c1`, the “hERG current change (%, negative = inhibition) at 1uM” value was -11.2%. Consider `CC(C)N(C(=O)Cn1cc(SCC(=O)NCC2CCCO2)c2ccccc21)C(C)C` (stereo not drawn), for which the “hERG current change (%, negative = inhibition) at 1uM” value is -14.8%. Regarding `Cc1cccc(C)c1OCC(=O)NCC1COc2ccccc2O1` (stereo not drawn), the “hERG current change (%, negative = inhibition) at 1uM” value came out at 3.69%. Consider `Cc1ccc(C(=O)OC(C)C(=O)NC2CCCCC2C)cc1S(=O)(=O)N1CCCCC1` (stereo not drawn), for which the “hERG current change (%, negative = inhibition) at 1uM” value is listed as 11.1%.

On to `CC1(C)CC(=O)C=C(c2ccc(F)nc2)C1`, for which the “hERG current change (%, negative = inhibition) at 1uM” value came to 16.6%. Regarding `C#CCOCCOCCOCCNc1nc(N2CCOCC2)nc(N2CCN(C(=O)CCCCCCCCCCNC(=O)[C@@H](CCSC)n3cc(CCO)nn3)CC2)n1`, the “hERG current change (%, negative = inhibition) at 1uM” value was 3.78%. As for `CCCCCCCn1c2c(c(=N)c3ccccc31)CCC2.I`, the “hERG current change (%, negative = inhibition) at 1uM” value is -89.6%. For `COc1ccc(Nc2nc(-c3ccccc3)c(C(=O)Nc3cccnc3)s2)cc1`, the “hERG current change (%, negative = inhibition) at 1uM” value is listed as 1.01%. For the compound `CCOC(=O)c1cccc(NC(=O)/C=C/c2ccc([N+](=O)[O-])cc2)c1`, the “hERG current change (%, negative = inhibition) at 1uM” value was 3.37%.

For the origin of these results see PMC4336329 (PLoS ONE, 2015).
